Source: the supplement of paper PMC8728848
This is one part of the list.

Key:
Experiment in all cases: glycan array binding signal (z-score within array); higher = stronger binding
Conditions in all cases: glycan notation: IUPAC condensed, linker removed
[1] = target: Neu5Ac(a2-8)Neu5Ac
How it was run: (§1)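 Negative Z-scores can be read as non-binding. The Z-score is calculated within each array and then averaged across arrays of one protein sequence at different concentrations or buffers and across linkers. Arrays, 3228 in all, were curated from the Consortium for Functional Glycomics database and kept only where the protein sequence was available.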

[2] = target: Neu5Ac(a2-8)Neu5Ac(a2-3)Gal(b1-3)GalNAc(b1-4)[Neu5Ac(a2-3)]Gal(b1-4)Glc
How it was run: as §1

[3] = target: Neu5Ac(a2-8)Neu5Ac(a2-3)Gal(b1-3)GalNAc(b1-4)[Neu5Ac(a2-8)Neu5Ac(a2-3)]Gal(b1-4)Glc
How it was run: as §1

[4] = target: Neu5Ac(a2-8)Neu5Ac(a2-3)Gal(b1-4)Glc
How it was run: as §1

[5] = target: Neu5Ac(a2-8)Neu5Ac(a2-3)Gal(b1-4)GlcNAc
How it was run: as §1

[6] = target: Neu5Ac(a2-8)Neu5Ac(a2-3)[Gal(b1-3)GalNAc(b1-4)]Gal(b1-4)Glc
How it was run: as §1

[7] = target: Neu5Ac(a2-8)Neu5Ac(a2-3)[GalNAc(b1-4)]Gal(b1-4)Glc
How it was run: as §1

[8] = target: Neu5Ac(a2-8)Neu5Ac(a2-8)Neu5Ac
How it was run: as §1

[9] = target: Neu5Ac(a2-8)Neu5Ac(a2-8)Neu5Ac(a2-3)Gal(b1-4)Glc
How it was run: as §1

[10] = target: Neu5Ac(a2-8)Neu5Ac(a2-8)Neu5Ac(a2-3)[Gal(b1-3)GalNAc(b1-4)]Gal(b1-4)Glc
How it was run: as §1

[11] = target: Neu5Ac(a2-8)Neu5Ac(a2-8)Neu5Ac(a2-3)[GalNAc(b1-4)]Gal(b1-4)Glc
How it was run: as §1

[12] = target: Neu5Ac(a2-8)Neu5Ac(a2-8)Neu5Ac(a2-8)Neu5Ac(a2-3)[GalNAc(b1-4)]Gal(b1-4)Glc
How it was run: as §1

[13] = target: Neu5Ac(a2-8)Neu5Gc(a2-3)Gal(b1-4)GlcNAc
How it was run: as §1

[14] = target: Neu5Ac(b2-6)Gal(b1-4)GlcNAc
How it was run: as §1

[15] = target: Neu5Ac(b2-6)GalNAc
How it was run: as §1

[16] = target: Neu5Ac9Ac(a2-3)Gal(b1-3)GlcNAc
How it was run: as §1

[17] = target: Neu5Ac9Ac(a2-3)Gal(b1-4)GlcNAc
How it was run: as §1

[18] = target: Neu5Ac9Ac(a2-6)Gal(b1-4)GlcNAc
How it was run: as §1

[19] = target: Neu5Gc(a2-3)Gal(b1-3)GlcNAc
How it was run: as §1

[20] = target: Neu5Gc(a2-3)Gal(b1-3)[Fuc(a1-4)]GlcNAc
How it was run: as §1

[21] = target: Neu5Gc(a2-3)Gal(b1-4)Glc
How it was run: as §1

[22] = target: Neu5Gc(a2-3)Gal(b1-4)GlcNAc
How it was run: as §1

[23] = target: Neu5Gc(a2-3)Gal(b1-4)GlcNAc(b1-3)Gal(b1-4)GlcNAc(b1-2)Man(a1-3)[Neu5Gc(a2-3)Gal(b1-4)GlcNAc(b1-3)Gal(b1-4)GlcNAc(b1-2)Man(a1-6)]Man(b1-4)GlcNAc(b1-4)GlcNAc
How it was run: as §1

[24] = target: Neu5Gc(a2-3)Gal(b1-4)[Fuc(a1-3)]GlcNAc
How it was run: as §1

[25] = target: Neu5Gc(a2-6)Gal(b1-4)GlcNAc
How it was run: as §1

[26] = target: Neu5Gc(a2-6)GalNAc
How it was run: as §1

[27] = target: Neu5Gc(a2-8)Neu5Ac(a2-3)Gal(b1-4)GlcNAc
How it was run: as §1

[28] = target: Neu5Gc(a2-8)Neu5Gc(a2-3)Gal(b1-4)GlcNAc
How it was run: as §1

[29] = target: Neu5Gc(a2-8)Neu5Gc(a2-3)Gal(b1-4)GlcNAc(b1-3)Gal(b1-4)GlcNAc
How it was run: as §1

[30] = target: Neu5Gc(a2-8)Neu5Gc(a2-6)Gal(b1-4)GlcNAc
How it was run: as §1

[31] = target: Neu5Gc(b2-6)Gal(b1-4)GlcNAc
How it was run: as §1

B1: SP16665A-bot-344-23-344 (Bacteroides ovatus) (protein)
chain: SDNEFPDFDYQTVYFANQYGLRTIELGESEFVDNTLDNQHKMVIKAAWGGGYTNRNNVVINFKVDESLCDNLYFKDTDQPLVPMPASYYTLASDRIAIPKGQIMAGVEVQLTDDFFADEKSISENYVIPLLMTNVQGADSILQGKPVVENPVLTNAGDWSILPQNFVLYAVKYVNPWHGEYLRRGIDHATVAGTSKDIIRHEQFVENDEVVNISTKSMKDNLLTLKTKDESGKDISYTVRLSFAEDGSCTVHSGSQNVVVSGSGKFVSKGEKNSLGGKDRNAIYLDYTVNLTDNNIQLATKDTLVLRTRNVYGGKSLEVVRK
**Q.** B1 was tested. Which “glycan array binding signal (z-score)” value [1] did it give?
**A.** Its value is -0.247.

**Q.** And the “glycan array binding signal (z-score)” value [2]?
**A.** The value was -0.497.

**Q.** And the “glycan array binding signal (z-score)” value [3]?
**A.** Its value is 0.03.

**Q.** And the “glycan array binding signal (z-score)” value [4]?
**A.** The value was -0.384.

**Q.** And the “glycan array binding signal (z-score)” value [5]?
**A.** The value was -0.345.

**Q.** And the “glycan array binding signal (z-score)” value [6]?
**A.** Its value is -0.083.

**Q.** What about the “glycan array binding signal (z-score)” value [7] of the same binder?
**A.** The value was -0.466.

**Q.** And the “glycan array binding signal (z-score)” value [8]?
**A.** The value was -0.123.

**Q.** And the “glycan array binding signal (z-score)” value [9]?
**A.** The value was -0.509.

**Q.** And the “glycan array binding signal (z-score)” value [10]?
**A.** The value was -0.048.

**Q.** What about the “glycan array binding signal (z-score)” value [11] of the same binder?
**A.** Its value is -0.3.

**Q.** And the “glycan array binding signal (z-score)” value [12]?
**A.** Its value is -0.366.

**Q.** What about the “glycan array binding signal (z-score)” value [13] of the same binder?
**A.** Its value is -0.21.

**Q.** What about the “glycan array binding signal (z-score)” value [14] of the same binder?
**A.** The value was -0.305.

**Q.** What about the “glycan array binding signal (z-score)” value [15] of the same binder?
**A.** The value was -0.463.

**Q.** And the “glycan array binding signal (z-score)” value [16]?
**A.** Its value is -0.51.

**Q.** What about the “glycan array binding signal (z-score)” value [17] of the same binder?
**A.** Its value is -0.391.

**Q.** And the “glycan array binding signal (z-score)” value [18]?
**A.** The value was -0.311.

**Q.** What about the “glycan array binding signal (z-score)” value [19] of the same binder?
**A.** The value was -0.106.

**Q.** And the “glycan array binding signal (z-score)” value [20]?
**A.** Its value is -0.412.

**Q.** And the “glycan array binding signal (z-score)” value [21]?
**A.** The value was -0.1.

**Q.** What about the “glycan array binding signal (z-score)” value [22] of the same binder?
**A.** The value was -0.188.

**Q.** What about the “glycan array binding signal (z-score)” value [23] of the same binder?
**A.** The value was 0.181.

**Q.** And the “glycan array binding signal (z-score)” value [24]?
**A.** The value was 0.629.

**Q.** And the “glycan array binding signal (z-score)” value [25]?
**A.** Its value is -0.371.

**Q.** And the “glycan array binding signal (z-score)” value [26]?
**A.** The value was -0.285.

**Q.** And the “glycan array binding signal (z-score)” value [27]?
**A.** The value was 0.014.

**Q.** What about the “glycan array binding signal (z-score)” value [28] of the same binder?
**A.** The value was -0.427.

**Q.** And the “glycan array binding signal (z-score)” value [29]?
**A.** Its value is -0.077.

**Q.** What about the “glycan array binding signal (z-score)” value [30] of the same binder?
**A.** The value was -0.088.

**Q.** And the “glycan array binding signal (z-score)” value [31]?
**A.** Its value is 0.645.
